Laboratory results reported in paper PMC12242688, “ApoE3 Christchurch and tau interaction as a protective mechanism against Alzheimer's disease” (Alzheimer's & Dementia, 2025).

Target: T1, Recombinant human tau-441 (2N4R), monomers (human, UniProt P10636-8 1-441)
T1 construct: tau, human, isoform tau-441 (2N4R), printed length 441; also called tau monomers; monomeric tau; source: bought: rPeptide (cat. T-1001-2), produced in E. coli
Experiment: pull-down; recombinant human tau-441 at nominal 1.2 µM incubated 5 h in binding buffer with His-tagged ApoE3 or ApoE3Ch, captured on nickel beads; Western blot with tau-5 and anti-His under reducing conditions; repeated four times
Settings: both partners purified

B1: Recombinant His-tagged ApoE3 Christchurch variant, HEK-derived (natural protein)
chain: not shown
notes: apolipoprotein E3 (APOE3) with the Christchurch variant, human; cDNA as synthetic gene fragment in pcDNA3, secreted into the conditioned media; position 136 is codon 154 by current nomenclature (printed); numbers count on: the mature protein ('classic' nomenclature); Natural variant R136S (mature numbering); also called HEK-derived ApoE3Ch; source: HEK293 or Expi293F, transiently transfected, …
- binding result: binds
